Measurements taken from PMC4336329 (PLoS ONE, 2015).
Hit rate of the full screen: of about 310,000 compounds, about 14,000 (4.5%) showed an effect of 50% or more. Effects have a minus sign here. This is one part of the list.

These compounds were tested against human ether-à-go-go-related gene (hERG) potassium channel (human, UniProt Q12809) (assay: primary screen, population patch clamp on CHO cells stably expressing hERG).
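Further: peak tail current of the secondary pulse compared with the same well before compound.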

Chain of human ether-à-go-go-related gene (hERG) potassium channel (Q12809 whole entry, looked up): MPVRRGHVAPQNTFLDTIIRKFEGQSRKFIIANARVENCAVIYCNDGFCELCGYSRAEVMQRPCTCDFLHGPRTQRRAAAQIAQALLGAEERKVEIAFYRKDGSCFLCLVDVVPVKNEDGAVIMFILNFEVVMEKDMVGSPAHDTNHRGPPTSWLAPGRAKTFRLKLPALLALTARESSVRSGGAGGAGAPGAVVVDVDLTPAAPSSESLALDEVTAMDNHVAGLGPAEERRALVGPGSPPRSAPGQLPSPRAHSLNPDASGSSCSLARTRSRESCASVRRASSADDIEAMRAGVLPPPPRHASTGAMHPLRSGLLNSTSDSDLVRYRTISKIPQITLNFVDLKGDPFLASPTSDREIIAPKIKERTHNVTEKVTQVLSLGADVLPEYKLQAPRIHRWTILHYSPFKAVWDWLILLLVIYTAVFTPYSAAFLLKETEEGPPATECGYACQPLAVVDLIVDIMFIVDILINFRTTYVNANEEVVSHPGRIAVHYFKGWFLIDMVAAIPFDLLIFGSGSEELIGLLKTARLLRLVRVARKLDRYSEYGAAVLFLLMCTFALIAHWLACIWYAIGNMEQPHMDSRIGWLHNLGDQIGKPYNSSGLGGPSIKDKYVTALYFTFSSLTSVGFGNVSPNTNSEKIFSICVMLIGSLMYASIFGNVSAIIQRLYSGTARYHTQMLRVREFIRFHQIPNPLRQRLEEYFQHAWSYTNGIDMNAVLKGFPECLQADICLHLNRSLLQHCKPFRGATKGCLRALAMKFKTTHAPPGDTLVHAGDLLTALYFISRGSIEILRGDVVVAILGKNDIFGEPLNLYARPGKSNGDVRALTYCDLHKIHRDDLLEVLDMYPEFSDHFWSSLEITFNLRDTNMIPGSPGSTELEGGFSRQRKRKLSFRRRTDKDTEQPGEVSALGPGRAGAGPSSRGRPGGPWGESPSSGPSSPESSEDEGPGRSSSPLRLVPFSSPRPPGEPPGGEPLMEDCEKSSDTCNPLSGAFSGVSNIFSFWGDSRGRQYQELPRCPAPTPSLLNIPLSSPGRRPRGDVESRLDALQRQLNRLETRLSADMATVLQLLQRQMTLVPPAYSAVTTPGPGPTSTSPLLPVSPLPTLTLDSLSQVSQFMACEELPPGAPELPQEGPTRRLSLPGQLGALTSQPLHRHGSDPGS

| SMILES | hERG current change (%, negative = inhibition) at 10uM [%] |
| --- | --- |
| CC(=O)c1sc(NC(=O)c2ccc(F)c(F)c2)nc1C | 19.6 |
| CC(=O)c1ccc(N2CCN(C(=O)CCS(=O)(=O)c3ccc4c(c3)NC(=O)CS4)CC2)cc1 | 22.8 |
| O=C(Cc1cccc2ccccc12)OCn1nnc2ccccc2c1=O | -9.73 |
| O=C(CN1CCc2ccccc2C1)N1CCN(S(=O)(=O)c2ccccc2)CC1 | -21.9 |
| Fc1ccc2c(-c3cccc(C(F)(F)F)c3)c(-c3ccccc3)ncc2c1 | 14.1 |
| Cc1ccc(CNC(=O)/C=C/c2ccc(S(=O)(=O)NCc3ccco3)cc2)cc1 | -1.37 |
| Cc1cc(Cl)c(S(=O)(=O)NC2CCCCC2)cc1OCC(=O)Nc1nncs1 | -22.1 |
| O=C(Oc1ccc2ccc(OC(=O)N3CCCCCC3)cc2c1)N1CCCCCC1 | -6.72 |
| Oc1ccc(CCc2n[nH]c(=S)n2-c2ccc(F)cc2)cc1 | -22.2 |
| Cc1c(C(=O)Nc2ccccc2[N+](=O)[O-])csc1-c1ccccc1 | -2.12 |
| O=C(c1ncn(Cc2ccccc2)c1C(=O)N1CCc2ccccc2C1)N1CCc2ccccc2C1 | -30.4 |
| CC(Sc1nc2ccccc2s1)C(=O)Nc1ccc2c(c1)OCO2 (stereo not shown) | 5.88 |
| c1csc(-c2csc(-c3cccs3)n2)c1 | 10.1 |
| CC(=O)Nc1ccc2nc(SCC(=O)Nc3ccc(N4CCOCC4)c(Cl)c3)sc2c1 | 0.699 |
| CC(C)(C)C(=O)Nc1cccc(C(=O)Nc2cc(C(=O)O)cc(C(=O)O)c2)c1 | 8.65 |
| CC(=O)NC12CC3CC(C1)CC(C(=O)N1CCN(S(=O)(=O)c4ccc(C(C)C)cc4)CC1)(C3)C2 | 7.66 |
| CCn1c(Oc2ccc(F)cc2)nc2c1c(=O)n(C)c(=O)n2C | -4.53 |
| COc1ccc(CN2CCN(Cc3ccc4cc(F)ccc4n3)CC2CCO)c(C)c1C (stereo not shown) | -63.7 |
| COc1ccc(NC(=O)Cn2nnc3ccccc32)c([N+](=O)[O-])c1 | 9.14 |
| C=CCNC(=O)c1cccc(NS(=O)(=O)c2ccc(Cl)cc2)c1 | -15.8 |
| Cn1c(=O)[nH]c(=O)c2c1ncn2CCCc1ccccc1 | 1.26 |
| CN(C)S(=O)(=O)c1ccc(C(=O)NCC(=O)N/N=C/c2ccccc2)cc1 | 8.44 |

| SMILES | hERG current change (%, negative = inhibition) at 10uM [%] |
| --- | --- |
| Cn1cc(/C=N\O)nc2c(=O)n(-c3ccccc3)c(=O)nc1-2 | 24.4 |
| CC(C)(C)NCc1cc(Cl)ccc1OCc1cccs1.Cl | -32.5 |
| CCN1C(=O)[C@@H]2[C@@H](c3ccc(-c4cccc(Cl)c4)cc3)N3CCC[C@@]3(C(=O)OC)[C@@H]2C1=O.O=C(O)C(F)(F)F | -18.9 |
| Cc1cc(Cl)ccc1OCC(=O)Nc1cccnc1 | 9.56 |
| C/C=C/C(=O)N1c2ccc(C)cc2C(C)=CC1(C)C | -12.8 |
| O=C1Nc2ccccc2C(c2ccccc2)=NC1O (stereo not shown) | 5.52 |
| CCc1nnc(N/N=C/c2ccc(N3CCC(C)CC3)c([N+](=O)[O-])c2)n1N | 12.6 |
| COc1ccccc1NC(=O)Nc1ccc(C)cn1 | 21.5 |
| COc1ccc(NC(=O)c2cncc(Br)c2)cc1S(=O)(=O)N1CCCCC1 | -4.03 |
| COc1ccc(OC)c(N=C(N)N=C(N)N)c1 | 18.9 |
| COc1ccc(C2Oc3ccccc3C3=C2C(c2cccs2)n2ncnc2N3)cc1 (stereo not shown) | -52.1 |
| Cc1ccc(C)c2[nH]c(=O)c(CN(Cc3ccc4c(c3)OCO4)Cc3nnnn3Cc3ccco3)cc12 | -2.72 |
| O=C(Nc1cccc(-n2cnnn2)c1)c1ccco1 | -0.205 |
| CCOc1cc(-c2noc(CCC(=O)NCCc3ccccc3)n2)ccc1OC | 1.79 |
| CCOc1cc(S(=O)(=O)NCc2ccc3c(c2)OCO3)ccc1F | -0.192 |
| COc1ccc(C(=O)Nc2ccccc2)cc1S(=O)(=O)Nc1cc(C)on1 | -0.0819 |
| CCCCN(C)C(=O)CCC(=O)Nc1ccc2nc(N3CCN(C)CC3)cc(C)c2c1 | 11 |
| O=C(N/N=C/c1oc(O)c2ccccc12)c1ccccc1 | 17.4 |
| COc1ccc(CCNC(=O)CCS(=O)(=O)c2ccc3c(c2)CCN3C(C)=O)cc1OC | -7.62 |
| Cc1ccc(C(=O)O/N=C(\N)c2ccccc2)c(Cl)c1 | 5.47 |
| O=C(NCc1cccs1)c1cc(-c2ccncc2)nc2ccc(Br)cc12 | -9.33 |
| CCOC(=O)C1(Cc2ccc(Cl)cc2)CCN(C(=O)c2ccoc2)CC1 | -49.4 |

| SMILES | hERG current change (%, negative = inhibition) at 10uM [%] |
| --- | --- |
| O=C1NC2(CCc3ccccc32)C(=O)N1CCOc1ccc(Cl)cc1 (stereo not shown) | -29.8 |
| O=C(/C=C/Nc1ccccc1)C(F)(F)F | -3.35 |
| Cc1ccc(S(=O)(=O)c2cc(O)ccc2O)cc1C | -11.4 |
| Nc1nonc1N/N=C\c1ccccc1 | -2.1 |
| COC(=O)c1cc(C(=O)OC)cc(N2C(=O)CN=C2Nc2nc(C)cc(C)n2)c1 | -0.946 |
| O=C(Cc1csc(-c2ccccc2)n1)NCc1ccc(F)cc1 | 1.55 |
| COc1ccc(-c2noc(-c3ccccc3C(=O)Nc3cccnc3)n2)cc1OC | -31 |
| CCCCC(=O)Nc1ccc(C(=O)NNC(=O)c2ccccc2Br)cc1 | -12.6 |
| CCOC(=O)C(C(=O)OCC)C(Nc1cccc(Br)c1)c1ccccc1 (stereo not shown) | 9.24 |
| CC(C(=O)N1CCN(Cc2ccccc2)CC1)c1ccc([N+](=O)[O-])cc1 (stereo not shown) | -43.7 |
| CCCn1cc(NC(=O)c2cc(-c3ccccc3)on2)cn1 | -21.5 |
| CC1CCN(c2ccc([N+](=O)[O-])cc2C(=O)O)CC1 | 7.28 |
| Nc1c(S(=O)(=O)c2ccccc2)cnc2c(-c3ccc(F)cc3)cnn12 | -11.7 |
| Cl.O=C(OCCN1CCCCC1)c1ccc(Cl)cc1 | -42 |
| CCCOc1c(Cl)cc(/C=N/O)cc1OCC | -7.95 |
| Cc1ccc(C(=O)Nc2cc(=O)n(C)c(=O)n2C)cc1C | 6.47 |
| Nc1c(Cl)ncnc1N/N=C/c1cccc(O)c1 | -6.6 |
| CC1(C)Cc2ccccc2-c2nnc(-c3cccnc3)n21 | 4.59 |
| O=C(N[C@@H](Cc1ccccc1)C(=O)O)c1ccc(C(F)(F)F)cc1 | 5.56 |
| COc1cccc2c1C(=O)C=C(C)C2=O | -9.54 |
| CC(=O)Nc1c(C#N)c(C(C)(C)C)cn1C | 7.93 |
| COc1ccc(S(=O)(=O)N2CCCOC2CNC(=O)C(=O)NCc2cccnc2)cc1 (stereo not shown) | 16.8 |

| SMILES | hERG current change (%, negative = inhibition) at 10uM [%] |
| --- | --- |
| O=S(=O)(c1ccc(Cl)s1)N1CCc2ccccc2C1 | 7.13 |
| CCc1ccc(C(C(=O)NC2CCCC2)N(CCOC)C(=O)CCC(=O)Nc2cc(C)on2)cc1 (stereo not shown) | -1.8 |
| CC(C)NC(=O)c1ccc(-c2ccc(Cl)c(C(F)(F)F)c2)o1 | 6.71 |
| Cc1nc(-c2cccc(NC(=O)c3ccco3)c2)cs1 | -0.548 |
| COc1ccc(CNS(=O)(=O)c2cn(C)c(=O)n(C)c2=O)cc1 | 24.4 |
| Cc1cc(C)c(C)c(S(=O)(=O)N2CCN(C(=O)CNC(=O)c3ccco3)CC2)c1C | -13.6 |
| CC(Sc1nnnn1-c1ccccc1)C(=O)Nc1ccccc1-c1ccccc1 (stereo not shown) | 4.1 |
| CCOc1cc(N2CCOCC2)c(OCC)cc1NC(=O)c1ccc(C)cc1 | 5.87 |
| O=C(Nc1ccc(Cl)cc1)N(Cc1nc2ccccc2c(=O)[nH]1)Cc1cccs1 | -12.4 |
| O=C(Nc1nnc(-c2ccccc2Cl)o1)c1ccco1 | 5.5 |
| CC1Cc2ccccc2N1S(=O)(=O)c1cnc(Cl)c(Br)c1 (stereo not shown) | 3.94 |
| O=C(CSc1nnc(NC(=O)c2ccco2)s1)Nc1ccccc1Br | 0.776 |
| Br.Clc1ccc2nc(CN3CCCc4ccccc43)cn2c1 | -8.72 |
| CCOC(=O)c1ccc(N2C(=O)CC(N3CCOCC3)C2=O)cc1 (stereo not shown) | -8.08 |
| CC(NC(=O)c1ccccc1Cl)c1nnc(SCC(=O)Nc2ccc(C(=O)O)cc2)n1C (stereo not shown) | 11.6 |
| O=S(=O)(Nc1ccc(-c2cn3ccccc3n2)cc1)c1ccccc1 | -31.4 |
| COc1ccccc1NC(=S)NC(NC(=O)C(C)C)C(Cl)(Cl)Cl (stereo not shown) | 6.15 |
| N#Cc1ccc(OCC(=O)OCCCOC(=O)COc2ccc(C#N)cc2)cc1 | -66.8 |
| Cc1cccc(C(=O)Nc2ccc(NC(=O)c3ccccc3)cc2)c1 | -13.1 |
| COc1ccc(S(=O)(=O)N2CCC(C(=O)Nc3ccccc3C)CC2)c2cccnc12 | -10.9 |
| O=C(COc1c(Cl)cccc1Cl)NN1C(=O)CSC1=S | 18.4 |
| COc1ccc(CCNCc2sccc2C)cc1OC.Cl | 6.32 |
